Test results: PMC6212790
This is one part of the list. At the low end of the ranking the order means little.

These sequences were tested against T1, GST-Rok (full length) (UniProt O34857) (assay: protein binding microarray). Conditions: Rok is a gene silencer of Bacillus subtilis; high values mean tight binding; most listed sequences are background and not binding sites; double strand, one strand shown.
T1 sequence: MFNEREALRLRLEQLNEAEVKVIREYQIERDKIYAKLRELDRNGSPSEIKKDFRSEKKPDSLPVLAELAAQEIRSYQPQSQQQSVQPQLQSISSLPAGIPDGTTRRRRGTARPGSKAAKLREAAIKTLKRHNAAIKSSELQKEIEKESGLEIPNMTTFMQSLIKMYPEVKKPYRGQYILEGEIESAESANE
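Note: rank score from −0.5 (least bound) to 0.5 (best bound).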

Row | Sequence | binding signal [E-score]
1 | ATGAACAT | 0.205
2 | CCAAAATA | 0.164
3 | TACATACA | 0.341
4 | AAGCAGCT | -0.0752
5 | CTCTTCTA | 0.0687
6 | ATTGGGTA | 0.292
7 | GTACCACA | 0.00441
8 | AAGACCTG | -0.0804
9 | GCCCGACA | -0.35
10 | CCGTGAAA | -0.162
11 | ACCTAAGG | -0.117
12 | ACCGAAGC | -0.116
13 | ACCCCGCG | -0.324
14 | AAGCGCTC | -0.0897
15 | CATCGTGA | 0.0959
16 | AGATGTAG | 0.312
17 | AACGCATA | 0.201
18 | CTAGATTA | 0.317
19 | AATAACCA | 0.237
20 | TAAGACGA | -0.14
21 | CGAGGTGC | -0.221
22 | GGGTACTA | 0.0543
23 | GTGTCTGA | 0.00226
24 | CCTGGATA | -0.0171
25 | AGCTGTAA | -0.0225

Row | Sequence | binding signal [E-score]
26 | ACTCCCCC | -0.315
27 | TTGGAAAA | 0.0484
28 | GACCAGAC | -0.176
29 | AAATGTCG | -0.0294
30 | AACTTGTG | 0.119
31 | AAAGACAA | 0.02
32 | GGCATCAC | 0.0736
33 | GACACGAA | -0.244
34 | AGAACTTG | 0.123
35 | AGCATGTA | 0.327
36 | ATCTGGTG | -0.0303
37 | ACCTATGA | 0.118
38 | CACTGGTC | -0.261
39 | ACTAGTGC | 0.256
40 | GCATGCTA | 0.111
41 | CTGCCCGA | -0.215
42 | CAGGCAAA | -0.105
43 | GTCTATAA | 0.179
44 | CAGTTCCG | -0.293
45 | CGTCAGGA | -0.261
46 | TCAACACA | 0.0292
47 | CTTCTGAC | 0.00129
48 | GACAGGTC | -0.131
49 | AGCCAATA | -0.0468
50 | AATCAATG | 0.0424

Row | Sequence | binding signal [E-score]
51 | CGTGTCCC | -0.315
52 | GACAGGGC | -0.199
53 | AAGCCTAG | -0.06
54 | CAATTGTC | -0.0649
55 | CGATCGCC | -0.0734
56 | CCGGTACG | -0.153
57 | AAATAACC | 0.146
58 | AACCTTGA | -0.0799
59 | AGAAAAAG | 0.0648
60 | CCTCGTCA | -0.22
61 | CTTATAAC | 0.115
62 | AACACCGT | 0.146
63 | ATCCAATA | 0.157
64 | CAATTTAG | 0.155
65 | CTGTGCCC | -0.227
66 | CCCTGATC | -0.291
67 | TAAGTGAA | 0.201
68 | AAGAATTA | 0.203
69 | CGGGGAGA | -0.292
70 | CAGTCCCG | -0.227
71 | TAGTGCGA | 0.124
72 | CCGGGGAA | -0.0835
73 | AAAATACT | 0.416
74 | CCAATTTC | 0.159
75 | ACTCCGGC | -0.11

Row | Sequence | binding signal [E-score]
76 | CCCCAAGG | -0.345
77 | TCCGTCCA | -0.306
78 | ATCAGAGA | 0.0162
79 | TAGTGGCA | 0.128
80 | CCAGCATC | 0.0753
81 | CAGATGAC | -0.166
82 | ATACTCAG | 0.116
83 | ACCCTCTA | -0.152
84 | CGACTAAG | -0.135
85 | CCAGCCGA | 0.0657
86 | AAATCCAA | 0.195
87 | GATTGGTA | 0.266
88 | GTGCTAAC | -0.0228
89 | GATTCCGA | 0.0264
90 | AGTGTTGG | 0.0473
91 | GACTCGGC | -0.229
92 | CGCTATCA | 0.0965
93 | ACCTGTGC | -0.235
94 | CCCATATA | 0.0887
95 | ATAAGTTC | 0.147
96 | CACGGCAC | 0.00317
97 | AGTGGCAT | -0.144
98 | ACATTGAC | 0.174
99 | AAGTACTG | 0.114
100 | CCGGAAGG | -0.277

Row | Sequence | binding signal [E-score]
101 | CGATGAAA | 0.0664
102 | CTTTACCC | 0.0425
103 | ATTACAAT | 0.273
104 | AGAAACCT | 0.169
105 | GAGCATCC | -0.345
106 | AATGGGAG | -0.0919
107 | AATATCAC | 0.326
108 | CAACGAAA | 0.0924
109 | GCCTGAGA | -0.233
110 | AAGCGTGT | 0.0855
111 | CTAGCGGA | 0.139
112 | ACAGTGAC | 0.0465
113 | CGGCTCAC | -0.288
114 | ACGCCGTC | -0.0817
115 | GCGCTAGC | -0.128
116 | ATAATCCC | -0.205
117 | CTCAGCCC | -0.235
118 | GAATAGGC | -0.173
119 | AATCTAAA | 0.175
120 | CAGCTAAC | -0.0892
121 | ATAAACTG | 0.175
122 | AGCGCTTC | -0.2
123 | AGCGGTCC | -0.135
124 | CCACTGAA | -0.106
125 | CCGGGACG | -0.171

Row | Sequence | binding signal [E-score]
126 | CATTATAA | 0.228
127 | ACGCCATA | -0.0445
128 | GCAAGGTA | 0.109
129 | CGTTTGAA | -0.00324
130 | TATAGATA | 0.384
131 | CCCGGTCG | -0.27
132 | CGAAAGAC | -0.0668
133 | ATGTAAAT | 0.376
134 | AACAGGAC | 0.00391
135 | CCGTGGAA | -0.0547
136 | AGACCAGA | -0.332
137 | ATGAACTG | 0.227
138 | AGAACGAA | 0.0711
139 | CCGGTTAA | 0.0273
140 | CGTTGTCC | -0.219
141 | ATTTGGTC | 0.0568
142 | ATTATGGC | 0.185
143 | GATGAAAA | 0.0125
144 | AGTCTGAC | -0.198
145 | GCTAATTA | 0.325
146 | GATTCACC | -0.0308
147 | GCCGCCAA | -0.274
148 | GCATTCCA | -0.149
149 | CCCGTACG | -0.101
150 | ATCGACAA | 0.105

Row | Sequence | binding signal [E-score]
151 | GGCTCGAC | -0.23
152 | CTCCGAAG | -0.0917
153 | CAAACCTC | 0.0122
154 | ATTGCATC | 0.0126
155 | TCGTCGAA | 0.0751
156 | GACATAGA | 0.0806
157 | GGCGTGAA | -0.178
158 | ACAGTAGC | 0.277
159 | CTTTCCGA | -0.113
160 | TGAGTGAA | -0.101
161 | GCTCAACC | -0.124
162 | ACTCCATG | 0.119
163 | GAGGTTTA | -0.0436
164 | ACTTCACT | 0.0809
165 | CCGTGACA | -0.0481
166 | ACATCTTA | 0.223
167 | ATCCACAA | 0.0415
168 | CTAGGATA | 0.143
169 | ACGAAAGA | -0.0692
170 | AGAATCTC | 0.0678
171 | GATGAATC | -0.0413
172 | CACAACTA | 0.252
